Measurements reported in the supplement of paper PMC4967469.
pIC50: −log10 of the molar value. By IC50 is meant the dose at which the fit gives 50% viability; fits outside the tested doses are given as limits. AUC is the area under the same curve over the 256-fold range up to the top dose, as a fraction: 1 means no effect, lower means more sensitive. For part of these data: A top dose marked as inferred is not printed in the source and was worked back from the curve model. For part of these data: Where an entry number is given, a second screen of the drug exists; the two often differ.

Assays:
Test in all cases: Viability of human cancer cell lines after 72 h of drug (GDSC screen)
Y-39983 = compound: C[C@@H](N)c1ccc(C(=O)Nc2ccnc3[nH]ccc23)cc1 [Y-39983]; conditions: top dose 20 µM; top dose inferred
Procedure: (§1)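 Human cancer cell lines in 384-well plates, medium with 10% serum, drug for 72 h over a 256-fold dose range (nine 2-fold or five 4-fold steps up to the top dose). Adherent lines were fixed and stained with the nucleic acid dye Syto60, suspension lines read with resazurin; signal relative to control wells, capped at 0 and 100%. One two-parameter sigmoid per drug and line, fitted in a mixed model over all curves with the slope shared within a line.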

TPCA-1 = compound: NC(=O)Nc1sc(-c2ccc(F)cc2)cc1C(N)=O [TPCA-1]; conditions: top dose 20 µM
Procedure: as §1

Pyrimethamine = compound: CCc1nc(N)nc(N)c1-c1ccc(Cl)cc1 [Pyrimethamine]; conditions: top dose 20 µM; top dose inferred
Procedure: as §1

Epothilone B = compound: C/C(=C\c1csc(C)n1)[C@@H]1C[C@@H]2O[C@]2(C)CCC[C@H](C)[C@H](O)[C@@H](C)C(=O)C(C)(C)[C@@H](O)CC(=O)O1 [Epothilone B]; conditions: top dose 0.032 µM; top dose inferred
Procedure: as §1

PHA-793887 = compound: CC(C)CC(=O)Nc1n[nH]c2c1CN(C(=O)C1CCN(C)CC1)C2(C)C [PHA-793887]; conditions: top dose 10.24 µM
Procedure: as §1

AZD-0530 = compound: CN1CCN(CCOc2cc(OC3CCOCC3)c3c(Nc4c(Cl)ccc5c4OCO5)ncnc3c2)CC1 [AZD-0530]; conditions: top dose 2 µM
Procedure: as §1

PLX4720 = compound: CCCS(=O)(=O)Nc1ccc(F)c(C(=O)c2c[nH]c3ncc(Cl)cc23)c1F [PLX4720]; conditions: top dose 10 µM
Procedure: as §1

[1] = screen: GDSC drug entry 1371, top dose inferred

| Cell Line | AUC (Y-39983) | pIC50 (Y-39983) | AUC (TPCA-1) | pIC50 (TPCA-1) | AUC (Pyrimethamine) | pIC50 (Pyrimethamine) | AUC (Epothilone B) | pIC50 (Epothilone B) | AUC (PHA-793887) | pIC50 (PHA-793887) | AUC (AZD-0530) | pIC50 (AZD-0530) | AUC (PLX4720; screen: GDSC drug entry 1036) | pIC50 (PLX4720; screen: GDSC drug entry 1036) | AUC (PLX4720; [1]) | pIC50 (PLX4720; [1]) |
| --- | --- | --- | --- | --- | --- | --- | --- | --- | --- | --- | --- | --- | --- | --- | --- | --- |
| BC-3 (B-cell lymphoma, suspension) | 0.916 | < 4.70 | 0.472 | 5.97 | 0.855 | 4.87 | 0.753 | 8.01 | 0.566 | 6.02 | 0.989 | < 5.70 | – | – | – | – |
| BT-474 (breast, adherent) | 0.968 | < 4.70 | 0.963 | < 4.70 | 0.981 | < 4.70 | 0.775 | 7.85 | 0.868 | < 4.99 | – | – | 0.985 | < 5.00 | 0.97 | < 5.00 |
| CAL-148 (breast, suspension) | 0.942 | < 4.70 | 0.821 | 4.98 | 0.983 | < 4.70 | 0.672 | 8.24 | 0.954 | < 4.99 | 0.987 | < 5.70 | – | – | – | – |
| CL-11 (large intestine, adherent) | 0.983 | < 4.70 | 0.962 | < 4.70 | 0.986 | < 4.70 | 0.969 | < 7.49 | 0.987 | < 4.99 | – | – | 0.987 | < 5.00 | 0.986 | < 5.00 |
| D-247MG (glioma, adherent) | 0.928 | < 4.70 | 0.98 | < 4.70 | 0.978 | < 4.70 | – | – | 0.98 | < 4.99 | 0.919 | < 5.70 | 0.949 | < 5.00 | 0.971 | < 5.00 |
| D-392MG (glioma, adherent) | 0.981 | < 4.70 | 0.861 | < 4.70 | 0.961 | < 4.70 | 0.921 | < 7.49 | 0.914 | < 4.99 | – | – | 0.96 | < 5.00 | 0.978 | < 5.00 |
| D-542MG (glioma, adherent) | 0.952 | < 4.70 | 0.978 | < 4.70 | 0.981 | < 4.70 | 0.976 | < 7.49 | 0.984 | < 4.99 | – | – | 0.977 | < 5.00 | 0.982 | < 5.00 |
| DOHH-2 (B-cell lymphoma, suspension) | – | – | – | – | 0.925 | < 4.70 | 0.661 | 8.26 | – | – | 0.865 | – | 0.926 | < 5.00 | – | – |
| ECC12 (stomach, suspension) | – | – | – | – | 0.611 | 5.56 | – | – | – | – | – | – | – | – | – | – |
| EW-12 (Ewing sarcoma, suspension) | – | – | – | – | 0.921 | < 4.70 | – | – | – | – | 0.97 | < 5.70 | – | – | – | – |
| EW-22 (Ewing sarcoma, adherent) | – | – | – | – | 0.866 | 4.78 | – | – | – | – | 0.985 | < 5.70 | 0.964 | < 5.00 | 0.943 | < 5.00 |
| GA-10 (Burkitt lymphoma, suspension) | – | – | – | – | 0.897 | 4.74 | – | – | – | – | 0.735 | 6.29 | 0.948 | < 5.00 | 0.963 | < 5.00 |
| GAK (melanoma, adherent) | 0.987 | < 4.70 | 0.951 | < 4.70 | 0.989 | < 4.70 | 0.708 | 8.13 | 0.99 | < 4.99 | – | – | 0.972 | < 5.00 | 0.959 | < 5.00 |
| HCC2998 (large intestine, adherent) | 0.976 | < 4.70 | 0.952 | < 4.70 | 0.747 | – | 0.349 | 9.11 | 0.884 | < 4.99 | – | – | – | – | – | – |
| HCC-33 (small cell lung carcinoma, adherent) | 0.912 | < 4.70 | 0.911 | < 4.70 | 0.919 | < 4.70 | 0.814 | 7.75 | 0.404 | 6.46 | 0.985 | < 5.70 | – | – | – | – |
| HH (T-cell leukaemia, suspension) | 0.755 | 5.05 | 0.647 | 5.44 | 0.875 | < 4.70 | 0.705 | 8.03 | 0.496 | 6.21 | – | – | 0.923 | < 5.00 | 0.949 | < 5.00 |
| IM-9 (myeloma, suspension) | – | – | – | – | 0.973 | < 4.70 | 0.895 | 7.53 | – | – | 0.992 | < 5.70 | 0.983 | < 5.00 | 0.96 | < 5.00 |
| KARPAS-231 (B-cell leukaemia, suspension) | – | – | – | – | 0.679 | 5.46 | 0.44 | 8.84 | 0.204 | 6.94 | 0.907 | 5.79 | 0.901 | 5.12 | 0.994 | < 5.00 |
| KASUMI-1 (acute myeloid leukaemia, suspension) | – | – | – | – | 0.983 | < 4.70 | – | – | 0.368 | 6.56 | 0.982 | < 5.70 | – | – | 0.807 | 5.29 |
| KMS-12-BM (myeloma, suspension) | 0.875 | 4.85 | 0.526 | 5.84 | 0.916 | < 4.70 | 0.622 | 8.39 | 0.45 | 6.32 | 0.99 | < 5.70 | – | – | – | – |
| KOPN-8 (B-cell leukaemia, suspension) | 0.923 | < 4.70 | 0.555 | 5.76 | – | – | 0.702 | 8.17 | 0.296 | 6.73 | 0.969 | < 5.70 | 0.977 | < 5.00 | 0.983 | < 5.00 |
| KP-N-YS (neuroblastoma, adherent) | 0.74 | 5.17 | 0.693 | 5.33 | 0.894 | < 4.70 | 0.582 | 8.46 | 0.666 | 5.70 | 0.967 | < 5.70 | – | – | – | – |
